According to PMC3366963, “Nucleolin Inhibits G4 Oligonucleotide Unwinding by Werner Helicase” (PLoS ONE, 2012):

Biological target: His6-WRN, full length purified (human, UniProt Q14191 1-1432)
Assay: cell-based or functional assay

Chain of UniProt Q14191 (Q14191 whole entry): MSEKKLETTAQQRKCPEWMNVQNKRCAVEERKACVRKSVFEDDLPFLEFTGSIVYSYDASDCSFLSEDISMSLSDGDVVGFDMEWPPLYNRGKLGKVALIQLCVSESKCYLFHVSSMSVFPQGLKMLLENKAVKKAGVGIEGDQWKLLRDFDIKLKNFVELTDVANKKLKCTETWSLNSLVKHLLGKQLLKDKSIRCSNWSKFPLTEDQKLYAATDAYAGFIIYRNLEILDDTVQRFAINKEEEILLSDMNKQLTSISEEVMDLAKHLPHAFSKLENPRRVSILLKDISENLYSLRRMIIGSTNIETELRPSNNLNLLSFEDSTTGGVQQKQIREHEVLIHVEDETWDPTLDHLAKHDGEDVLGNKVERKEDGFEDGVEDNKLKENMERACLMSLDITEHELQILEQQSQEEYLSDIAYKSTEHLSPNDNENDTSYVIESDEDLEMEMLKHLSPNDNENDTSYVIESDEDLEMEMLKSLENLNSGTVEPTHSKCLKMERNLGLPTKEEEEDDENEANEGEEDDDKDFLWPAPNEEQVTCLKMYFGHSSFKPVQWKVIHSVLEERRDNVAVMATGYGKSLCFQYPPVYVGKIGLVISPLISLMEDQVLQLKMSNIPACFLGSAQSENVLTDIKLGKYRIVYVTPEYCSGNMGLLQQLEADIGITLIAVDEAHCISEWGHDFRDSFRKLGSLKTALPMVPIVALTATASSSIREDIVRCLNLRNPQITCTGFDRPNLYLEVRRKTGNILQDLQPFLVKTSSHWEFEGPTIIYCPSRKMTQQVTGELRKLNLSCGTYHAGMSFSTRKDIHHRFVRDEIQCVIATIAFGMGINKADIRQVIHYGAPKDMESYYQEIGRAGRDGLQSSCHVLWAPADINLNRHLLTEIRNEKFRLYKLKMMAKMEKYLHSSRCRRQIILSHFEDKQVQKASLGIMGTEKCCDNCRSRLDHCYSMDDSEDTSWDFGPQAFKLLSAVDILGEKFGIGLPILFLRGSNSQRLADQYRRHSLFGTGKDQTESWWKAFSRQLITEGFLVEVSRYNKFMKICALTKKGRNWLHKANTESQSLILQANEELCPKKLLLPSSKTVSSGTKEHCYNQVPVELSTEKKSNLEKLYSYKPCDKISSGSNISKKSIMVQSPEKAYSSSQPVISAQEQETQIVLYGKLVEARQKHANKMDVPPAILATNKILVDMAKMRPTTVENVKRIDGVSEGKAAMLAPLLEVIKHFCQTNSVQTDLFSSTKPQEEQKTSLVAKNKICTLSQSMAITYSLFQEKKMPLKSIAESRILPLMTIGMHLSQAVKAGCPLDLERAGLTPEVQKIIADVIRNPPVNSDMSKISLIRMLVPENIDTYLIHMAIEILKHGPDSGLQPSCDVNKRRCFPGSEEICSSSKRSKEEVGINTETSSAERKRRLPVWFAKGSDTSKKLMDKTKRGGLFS

B1: GST-nucleolin RGG fragment (domain or fragment)
chain: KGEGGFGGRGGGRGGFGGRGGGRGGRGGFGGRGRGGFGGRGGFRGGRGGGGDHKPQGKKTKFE
modifications: GST tag omitted. Limits are not printed: from after RRM 4 to the C-terminus (the paper numbers the C-terminus 707, the entry 710)
- inhibition of WRN helicase unwinding of a 22 base pair partial duplex fork substrate, RGG fragment at molar ratios of 10:1 (over 60%) to 25:1 vs WRN: 90%
